# Experimental data: PubChem BioAssay AID463173 (ICCB-Longwood Screening Facility, Harvard Medical School, 2010)
# The campaign covered roughly 52,000 compounds. About 1,700 (3.3%) were called active. Cut-off read from the data, not from the text of the source: active = survival mostly below about 52% (no sharp cut-off); inactive = mostly above about 56%. The list shows a part of the results.
# System: Wild type
# Assay: S. aureus survival, RN4220 and DeltatarO strains – OD600, teichoic acid synthesis inhibitors, primary screen (AID 463173)
# Details: S. aureus RN4220 wild type/DeltatarO growth, OD600, 18 h, hits give low values, screened at 18.75 µg/mL (by protocol)
row,SMILES,survival
1,O=S(=O)(CCn1cccc1)CCn1cccc1,inactive: 98%
2,CCOC(=O)C1CCCN(C(=O)c2nn(-c3ccc(C)cc3)c(=O)c3c2c2ccccc2n3C)C1 (stereo unspecified),inactive: 72%
3,CCCn1c(CCCNC(=O)c2ccccc2OC)nc2ccccc21,inactive: 133%
4,O=C(/C=C\c1ccccc1)NC1CC(=O)N(c2ccccc2)C1 (stereo unspecified),inactive: 136%
5,Cc1ccc2c(c1)cc(CN(Cc1ccco1)S(=O)(=O)c1ccccc1)c1nnnn12,inactive: 102%
6,COc1ccc(CC(NC(C)=O)C(=O)N2CCN(C(=O)Nc3ccc(C#N)cc3)CC2)cc1 (stereo unspecified),inactive: 105%
7,Cc1cc(C)c2c(n1)sc1c(=O)n(-c3cc(Cl)ccc3C)nnc12,inactive: 89%
8,CCN(Cc1ccccc1)C(=O)c1sc2nc3n(c(=O)c2c1C)CCCC3,inactive: 81%
9,CCOc1ccc(CNS(=O)(=O)c2ccc(-c3coc(C)n3)cc2)cc1OC,inactive: 68%
10,OC(COC(c1ccccc1)c1ccccc1)CN1CCCCC1 (stereo unspecified),inactive: 97%
11,CCN(CC)CCCNC(=O)c1nn(-c2ccc(C)cc2)c(=O)c2c1c1ccccc1n2C,inactive: 62%
12,CCCCN(C)CCCNC(=O)Cn1ncc2c3ccccc3n(Cc3cc(C)ccc3C)c2c1=O,inactive: 96%
13,NNC(=O)CNC(=O)c1ccc2c(c1)OCO2,inactive: 107%
14,O=C(CN1CCOCC1)NC12CC3CC(CC(C3)C1)C2,inactive: 101%
15,COc1ccccc1CNC(=O)c1cc2c(s1)-c1ccccc1OC2,inactive: 92%
16,CCC(=O)N1c2ccc(S(=O)(=O)CCC(=O)Nc3ccc(Br)c(C)c3)cc2CC1C (stereo unspecified),inactive: 87%
17,O=C(O)COc1nsnc1N1CCOCC1,inactive: 102%
18,COCCNC(=O)Cn1c(=O)n(CCCCCC(=O)Nc2ccccc2)c(=O)c2sccc21,inactive: 88%
19,COc1ccc(/C=C(\C#N)c2nc3ccccc3n2C)c(OC)c1,inactive: 59%
20,O=S(=O)(c1ccccc1)c1nnn2c1nc(NCc1ccccc1)c1sccc12,inactive: 91%
21,CCOCCCN(Cc1ccco1)C(=O)c1cc2c(=O)[nH]c3ccc(C)cc3c2s1,inactive: 127%
22,CCc1ccc2c(c1)-c1ccccc1S(=O)(=O)N2CC(=O)N1CCCCC1,inactive: 86%
23,COc1ccc(-c2cn3c(n2)sc2cc(C(=O)NCCc4ccc(OC)cc4OC)ccc23)cc1,inactive: 76%
24,Cc1ccc(Cl)cc1N1CCN(C(=O)CN2C(=O)CSc3c2c(C)nn3-c2ccccc2)CC1,inactive: 70%
25,COc1cccc(NC(=O)c2cnc(SCC(=O)N3CCOCC3)n(C)c2=O)c1,inactive: 128%
26,O=C(NCc1cccs1)c1ccc(Cn2c(SCc3ccc(F)cc3)nc3cccnc32)cc1,inactive: 91%
